Data taken from a collection of fitness landscapes (doi:10.1126/science.1257360).
The list shows a part of the results.

B1: PhoQ; a variant is named by its letters at X, in order, P23837 (parent)
chain: MKKLLRLFFPLSLRVRFLLATAAVVLVLSLAYGMVALIGYSVSFDKTTFRLLRGESNLFYTLAKWENNKLHVELPENIDKQSPTMTLIYDENGQLLWAQRDVPWLMKMIQPDWLKSNGFHEIEADVNDTSLLLSGDHSIQQQLQEVREDDDDAEMTHSVAVNVYPATSRMPKLTIVVVDTIPVELKSSYMVWSWFIYVLSANLLLVIPLLWVAAWWSLRPIEALAKEVRELEEHNRELLNPATTRELTSLVRNLNRLLKSERERYDKYRTTLTDLTHSLKTPLXXLQXXLRSLRSEKMSVSDAEPVMLEQISRISQQIGYYLHRASMRGGTLLSRELHPVAPLLDNLTSALNKVYQRKGVNISLDISPEISFVGEQNDFVEVMGNVLDNACKYCLEFVEISARQTDEHLYIVVEDDGPGIPLSKREVIFDRGQRVDTLRPGQGVGLAVAREITEQYEGKIVAGESMLGGARMEVIFGRQHSAPKDE

Variants of: B1
Assay: enrichment ratio after two sorts for PhoP signalling (ratio (wild type AVST 3.29)); higher = more functional
Conditions: with PhoP (E. coli)

First: DFKE
Second: THWS
The enrichment ratio of the first is lower: ≤ 0.25 for the first, 1.22 for the second.

Going from MTLG to WHPR, the enrichment ratio falls from 4.49 to ≤ 0.25.

VLNY and QHKL cannot be ordered by enrichment ratio: ≤ 0.25 for the first, ≤ 0.25 for the second.

MVTR and VPVN cannot be ordered by enrichment ratio: ≤ 0.25 for the first, ≤ 0.25 for the second.

KGKR and HGIQ cannot be ordered by enrichment ratio: ≤ 0.25 for the first, ≤ 0.25 for the second.

RPMI and KEQE cannot be ordered by enrichment ratio: ≤ 0.25 for the first, ≤ 0.25 for the second.

Going from TEWN to ECPR, the enrichment ratio falls from 9.81 to ≤ 0.25.

First: ARVF
Second: VMVV
The enrichment ratio of the first is higher: 0.299 for the first, ≤ 0.25 for the second.

IEDF and EFDI cannot be ordered by enrichment ratio: ≤ 0.25 for the first, ≤ 0.25 for the second.

WEHF and RMSM cannot be ordered by enrichment ratio: ≤ 0.25 for the first, ≤ 0.25 for the second.

SNPY and WTKM cannot be ordered by enrichment ratio: ≤ 0.25 for the first, ≤ 0.25 for the second.

IKKI and MMCP cannot be ordered by enrichment ratio: ≤ 0.25 for the first, ≤ 0.25 for the second.

AYAY and HYTC cannot be ordered by enrichment ratio: ≤ 0.25 for the first, ≤ 0.25 for the second.

Going from HPHR to QSWV, the enrichment ratio rises from ≤ 0.25 to 22.9.

DGHN and SGHD cannot be ordered by enrichment ratio: ≤ 0.25 for the first, ≤ 0.25 for the second.

DGCH and QANP cannot be ordered by enrichment ratio: ≤ 0.25 for the first, ≤ 0.25 for the second.

IHQI and EDDG cannot be ordered by enrichment ratio: ≤ 0.25 for the first, ≤ 0.25 for the second.

QIKT and GEWR cannot be ordered by enrichment ratio: ≤ 0.25 for the first, ≤ 0.25 for the second.

RHPY and DKLC cannot be ordered by enrichment ratio: ≤ 0.25 for the first, ≤ 0.25 for the second.

DPRN and VQCT cannot be ordered by enrichment ratio: ≤ 0.25 for the first, ≤ 0.25 for the second.

QKRT and FHCV cannot be ordered by enrichment ratio: ≤ 0.25 for the first, ≤ 0.25 for the second.

Compared with MMSV, GKMF is lower in enrichment ratio: 5.06 for the first, ≤ 0.25 for the second.

RSKI and YEHP cannot be ordered by enrichment ratio: ≤ 0.25 for the first, ≤ 0.25 for the second.

DTMA and SMHG cannot be ordered by enrichment ratio: ≤ 0.25 for the first, ≤ 0.25 for the second.

GPCR and HKQK cannot be ordered by enrichment ratio: ≤ 0.25 for the first, ≤ 0.25 for the second.

IVPE and NELT cannot be ordered by enrichment ratio: ≤ 0.25 for the first, ≤ 0.25 for the second.

VEQR and GCMK cannot be ordered by enrichment ratio: ≤ 0.25 for the first, ≤ 0.25 for the second.

STPP and EMYH cannot be ordered by enrichment ratio: ≤ 0.25 for the first, ≤ 0.25 for the second.

VSFS and LTCI cannot be ordered by enrichment ratio: ≤ 0.25 for the first, ≤ 0.25 for the second.

YIWS and FMFL cannot be ordered by enrichment ratio: ≤ 0.25 for the first, ≤ 0.25 for the second.

LCTM and GFMC cannot be ordered by enrichment ratio: ≤ 0.25 for the first, ≤ 0.25 for the second.

EGPG and KIYP cannot be ordered by enrichment ratio: ≤ 0.25 for the first, ≤ 0.25 for the second.

WCKG and YHQE cannot be ordered by enrichment ratio: ≤ 0.25 for the first, ≤ 0.25 for the second.

EYWW and YNTF cannot be ordered by enrichment ratio: ≤ 0.25 for the first, ≤ 0.25 for the second.

Going from KCSP to NKKD, the enrichment ratio falls from 0.504 to ≤ 0.25.

IGTL and HKNI cannot be ordered by enrichment ratio: ≤ 0.25 for the first, ≤ 0.25 for the second.

EFQR and LRAE cannot be ordered by enrichment ratio: ≤ 0.25 for the first, ≤ 0.25 for the second.

RHYP and DIRD cannot be ordered by enrichment ratio: ≤ 0.25 for the first, ≤ 0.25 for the second.

Compared with EAAI, NDIY is higher in enrichment ratio: ≤ 0.25 for the first, 2.6 for the second.

Going from LAYP to HYQY, the enrichment ratio falls from 0.263 to ≤ 0.25.

ANQD and WVCF cannot be ordered by enrichment ratio: ≤ 0.25 for the first, ≤ 0.25 for the second.

IMYY and KKFS cannot be ordered by enrichment ratio: ≤ 0.25 for the first, ≤ 0.25 for the second.

QRFF and IQRH cannot be ordered by enrichment ratio: ≤ 0.25 for the first, ≤ 0.25 for the second.

RQLP and DTEY cannot be ordered by enrichment ratio: ≤ 0.25 for the first, ≤ 0.25 for the second.

Compared with MVLT, FTAD is higher in enrichment ratio: ≤ 0.25 for the first, 0.886 for the second.

Compared with TTCH, ELED is lower in enrichment ratio: 15 for the first, ≤ 0.25 for the second.

FDTE and NGIH cannot be ordered by enrichment ratio: ≤ 0.25 for the first, ≤ 0.25 for the second.

RWVF and KQPA cannot be ordered by enrichment ratio: ≤ 0.25 for the first, ≤ 0.25 for the second.

WDIQ and RCRV cannot be ordered by enrichment ratio: ≤ 0.25 for the first, ≤ 0.25 for the second.
